According to the supplement of paper PMC11417369:
The list shows a part of the results.

System: PfSIP2 AP2 domain 1 (GST-tagged)
Assay: gcPBM binding intensity (ln(normalized median fluorescence intensity)); higher = stronger DNA binding
Procedure, shortened: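 DNA-binding domains from P. falciparum, fused to GST and produced in E. coli, were put on an Agilent 4 × 180k double-stranded probe array for 1 h in 1× PBS holding 1% milk, 0.2 mg/ml BSA, 0.5% salmon testes DNA and 0.03% Triton X-100. Probes were primer-extended, 36 bp long and drawn from intergenic genomic regions, with negative controls included. After Alexa488 anti-GST antibody detection and a 488 nm scan, binding intensity was set as the highest Masliner-normalised natural-log median intensity across replicate spots of either probe orientation.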

Sequence | gcPBM binding intensity (ln)
ATGTATGTATATACTTGTACATATTCATATTAGTAT [XGTACX_site1118] | 6.99
AATGTAGCATTTTATCGTACACTTAATACAAAAAAG [XGTACX_site6214] | 7.02
CAATTACAAAAGAAATGTACTCGTAATAAATAAATA [XGTACX_site1126] | 7.22
TGAAATTTTTATACATGTACAAAATTAAATATAACA [XGTACX_site7324] | 7.09
TATAATAATAATAATAGTACGTATTATTAAAAAACT [XGTACX_site10] | 7.03
ATATTACACATATATGCACACATTGTAGTTATTTAT [CACACA_site8843] | 9.43
ATGCACTCATTGTGCACACGCATATTACGAAAAGAA [CACACA_site2638] | 10.2
AAAAAAAAAAAAAACACACACACACCCATACAAAAT [CACACA_site1446] | 7.43
AAGATTTGAAAAAATACACACAATAAAAAAATAAAA [CACACA_site3281] | 7.09
TATATATATATGTGTATACACACCTGATAAAGGTAT [CACACA_site2653] | 9.06
AATAAATAAAAAACATGTACAAATATAATATAGCAT [XGTACX_site6429] | 7.46
TATACATATGAAAATACACACATACATACCTATATA [CACACA_site6888] | 6.97
TATTTAACACCTTATACACACTTTCTTCCTTTTTTA [CACACA_site4590] | 6.95
TAATTGTACGCCAATACACACAGAATTATAATGTAG [CACACA_site6201] | 7.43
GATATTGAGAAAGGGTGTACAAGATATTATACTATA [XGTACX_site3598] | 6.97
AATAGAAAAAAATAAGTGCATTTTGGTATTCATCAT [GTGCAC_site9614] | 8.14
AAATTTATATTCATTTGTACGTAATTTAAATTATAC [XGTACX_site5870] | 7.05
TTTTATGTAATTATTTGTACATATGCCTCTTAAACT [XGTACX_site748] | 6.83
ACATAAATAATAAAAACACACATATGTACATATATA [CACACA_site1913] | 7.15
AAAAAAAAAAAGCACACACACATATGTGTATTTATA [CACACA_site6578] | 6.93
ACAAAATATACAAAATGTACAAAATTTACAAAATGT [XGTACX_site3544] | 6.92
TACTAGCAAATACATACACACACACCCATATACATA [CACACA_site9163] | 7.02

Sequence | gcPBM binding intensity (ln)
GTAATATATACAAAATGTACAAAACAATAACATGAT [XGTACX_site8575] | 7.17
ATCCAAACAAATAAAACATGCATAATATATATATAT [TGCATGCA_site766] | 8.84
ATGCTTTTATAAATAATTAAAAAAAAAAAAAAAAAA [TGCATGCA_negctrl_site533] | 6.82
CTCAAATAATTTTTTACACACATTATTTGAAATAAG [CACACA_site1290] | 7
TTTTTTTTTAATATTTGTACACAACATGAAACATTT [XGTACX_site473] | 6.99
TAAAATATTACGTGTACACATAAATAAAAATAAAAA [CACACA_site5066] | 8.34
TTTTATATTCCACAAAAAATTATATAATAATAGAAC [CACACA_negctrl_site1741] | 7.26
AACACAGATAAATTAACACACACACCCATATATATA [CACACA_site9310] | 7.69
CACATATAGTTATATGCACACATCTTACACATCTAT [CACACA_site5937] | 7.14
ATGAAATATCGGAACGCACACATAAATATATTTATA [CACACA_site2670] | 7.21
TAGCTTATTAATATCATACACACATAGATATATTTA [CACACA_site3105] | 6.92
TTGAACTCTCTTACGCGTACGTGTTATTATGAAAAT [XGTACX_site6265] | 6.88
CAATTTGGGGTGTACACACACCTTATTTAAATTAAA [CACACA_site6663] | 7.19
TATATATATATATGTGCATGTAATGATTCAGCATCT [TGCATGCA_site803] | 9.04
TTACATAATTTCTGCTGTACCAATTTTGAGAAGTTG [XGTACX_site4023] | 6.99
AAAAGGAATATAATCATTCAAAAATATAATATATAT [GTGCAC_negctrl_site551] | 7.1
ATGTAAATATATATATGTACTAATTAGTAGTTTACG [XGTACX_site6271] | 7.25
TTTTATAAATTATAATTCTATTATCTGTTCTTTTTA [TGCATGCA_negctrl_site487] | 6.7
CATACATACATACATACACACATACAGATATATATA [CACACA_site4890] | 7.92
TCCTTATTACTTTTTTAAGTCGTAATGAAAGAAAAA [CACACA_negctrl_site1497] | 7.06
ATCTTAACTCTATGCACACATAAAAGTATATAAATA [CACACA_site2256] | 7.7
ATCATGTTATATACATGTACATATATATATATATAA [XGTACX_site609] | 7.55
